Assay results published in the supplement of paper PMC12230231.

What follows are sequences tested on SIVsab (simian immunodeficiency virus of sabaeus monkeys), single-cycle GFP reporter, in CRFK cells (assay: enrichment among infected cells over input (fold); higher = weaker restriction). Conditions: library: human / rhesus combinations.
Procedure: (§1)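 Pools of CRFK cells expressing variants of the TRIM5α v1 loop were challenged with the single-cycle reporter, sorted by GFP and sequenced; mean of two replicates.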
“MASGILLNVKEEVTCPICLELLTEPLSLHCGHSFCQACITANHKKSMLYKEGERSCPVCRISYQPENIQPNRHVANIVEKLREVKLSPEEGQKVDHCARHGEKLLLFCQEDSKVICWLCERSQEHRGHHTFLMEEVAQEYHVKLQTALEMLRQKQQEAEKLEADIREEKASWKIQIDYDKTNVSADFEQLREILDWEESNELQNLEKEEEDILKSLTKSETEMVQQTQYMRELISELEHRLQGSMMDLLQGVDGIIKRIENMTLKKPKTFHKNQRRVFRAPDLKGMLDMFRELTDARRYWVDVTLAPNNISHAVIAEDKRQVSSRNPQIMYGARGTRFQSLVNFNYCTGVLGSQSITSGKHYWEVDVSKKSAWILGVCAGFQSDAMYNIEQNENYQPKYGYWVIGLQEGVKYSVFQDGSSHTPFAPFIVPLSVIICPDRVGVFVDYEACTVSFFNITNHGFLIYKFSQCSFSKPVFPYLNPRKCTVPMTLCSPSS [rhesus TRIM5α, 332-344 = GARGTRFQSLV]” was tested, and the enrichment was 30.5 ± 41. With “MASGILLNVKEEVTCPICLELLTEPLSLHCGHSFCQACITANHKKSMLYKEGERSCPVCRISYQPENIQPNRHVANIVEKLREVKLSPEEGQKVDHCARHGEKLLLFCQEDSKVICWLCERSQEHRGHHTFLMEEVAQEYHVKLQTALEMLRQKQQEAEKLEADIREEKASWKIQIDYDKTNVSADFEQLREILDWEESNELQNLEKEEEDILKSLTKSETEMVQQTQYMRELISELEHRLQGSMMDLLQGVDGIIKRIENMTLKKPKTFHKNQRRVFRAPDLKGMLDMFRELTDARRYWVDVTLAPNNISHAVIAEDKRQVSSRNPQIMYGARGTLYPTFTNFNYCTGVLGSQSITSGKHYWEVDVSKKSAWILGVCAGFQSDAMYNIEQNENYQPKYGYWVIGLQEGVKYSVFQDGSSHTPFAPFIVPLSVIICPDRVGVFVDYEACTVSFFNITNHGFLIYKFSQCSFSKPVFPYLNPRKCTVPMTLCSPSS [rhesus TRIM5α, 332-344 = GARGTLYPTFT]” the enrichment was 0.835 ± 1.2.

These sequences were tested on SIVsab (simian immunodeficiency virus of sabaeus monkeys), single-cycle GFP reporter, in CRFK cells (assay: enrichment among uninfected cells over input (fold); higher = stronger restriction). Conditions: library: human / rhesus combinations.
Procedure: as §1
“MASGILVNVKEEVTCPICLELLTQPLSLDCGHSFCQACLTANHKKSMLDKGESSCPVCRISYQPENIRPNRHVANIVEKLREVKLSPEGQKVDHCARHGEKLLLFCQEDGKVICWLCERSQEHRGHHTFLTEEVAREYQVKLQAALEMLRQKQQEAEELEADIREEKASWKTQIQYDKTNVLADFEQLRDILDWEESNELQNLEKEEEDILKSLTNSETEMVQQTQSLRELISDLEHRLQGSVMELLQGVDGVIKRTENVTLKKPETFPKNQRRVFRAPDLKGMLEVFRELTDVRRYWVDVTVAPNNISCAVISEDKRQVSSPKPQIIYGARGTRFTFQSFVNFNYCTGILGSQSITSGKHYWEVDVSKKTAWILGVCAGFQPDAMCNIEKNENYQPKYGYWVIGLEEGVKCSAFQDSSFHTPSVPFIVPLSVIICPDRVGVFLDYEACTVSFFNITNHGFLIYKFSHCSFSQPVFPYLNPRKCGVPMTLCSPSS [human TRIM5α, 330-340 = GARGTRFTFQSFV]” gave an enrichment of 0.414 ± 0.027. “MASGILVNVKEEVTCPICLELLTQPLSLDCGHSFCQACLTANHKKSMLDKGESSCPVCRISYQPENIRPNRHVANIVEKLREVKLSPEGQKVDHCARHGEKLLLFCQEDGKVICWLCERSQEHRGHHTFLTEEVAREYQVKLQAALEMLRQKQQEAEELEADIREEKASWKTQIQYDKTNVLADFEQLRDILDWEESNELQNLEKEEEDILKSLTNSETEMVQQTQSLRELISDLEHRLQGSVMELLQGVDGVIKRTENVTLKKPETFPKNQRRVFRAPDLKGMLEVFRELTDVRRYWVDVTVAPNNISCAVISEDKRQVSSPKPQIIYGARGTLFPTLVNFNYCTGILGSQSITSGKHYWEVDVSKKTAWILGVCAGFQPDAMCNIEKNENYQPKYGYWVIGLEEGVKCSAFQDSSFHTPSVPFIVPLSVIICPDRVGVFLDYEACTVSFFNITNHGFLIYKFSHCSFSQPVFPYLNPRKCGVPMTLCSPSS [human TRIM5α, 330-340 = GARGTLFPTLV]” showed an enrichment of 0.00426 ± 0.0015. “MASGILVNVKEEVTCPICLELLTQPLSLDCGHSFCQACLTANHKKSMLDKGESSCPVCRISYQPENIRPNRHVANIVEKLREVKLSPEGQKVDHCARHGEKLLLFCQEDGKVICWLCERSQEHRGHHTFLTEEVAREYQVKLQAALEMLRQKQQEAEELEADIREEKASWKTQIQYDKTNVLADFEQLRDILDWEESNELQNLEKEEEDILKSLTNSETEMVQQTQSLRELISDLEHRLQGSVMELLQGVDGVIKRTENVTLKKPETFPKNQRRVFRAPDLKGMLEVFRELTDVRRYWVDVTVAPNNISCAVISEDKRQVSSPKPQIIYQAPGTLFPSLVNFNYCTGILGSQSITSGKHYWEVDVSKKTAWILGVCAGFQPDAMCNIEKNENYQPKYGYWVIGLEEGVKCSAFQDSSFHTPSVPFIVPLSVIICPDRVGVFLDYEACTVSFFNITNHGFLIYKFSHCSFSQPVFPYLNPRKCGVPMTLCSPSS [human TRIM5α, 330-340 = QAPGTLFPSLV]” showed an enrichment of 0.0653 ± 0.085. Work on “MASGILVNVKEEVTCPICLELLTQPLSLDCGHSFCQACLTANHKKSMLDKGESSCPVCRISYQPENIRPNRHVANIVEKLREVKLSPEGQKVDHCARHGEKLLLFCQEDGKVICWLCERSQEHRGHHTFLTEEVAREYQVKLQAALEMLRQKQQEAEELEADIREEKASWKTQIQYDKTNVLADFEQLRDILDWEESNELQNLEKEEEDILKSLTNSETEMVQQTQSLRELISDLEHRLQGSVMELLQGVDGVIKRTENVTLKKPETFPKNQRRVFRAPDLKGMLEVFRELTDVRRYWVDVTVAPNNISCAVISEDKRQVSSPKPQIIYGAPGTRYTFPTLTNFNYCTGILGSQSITSGKHYWEVDVSKKTAWILGVCAGFQPDAMCNIEKNENYQPKYGYWVIGLEEGVKCSAFQDSSFHTPSVPFIVPLSVIICPDRVGVFLDYEACTVSFFNITNHGFLIYKFSHCSFSQPVFPYLNPRKCGVPMTLCSPSS [human TRIM5α, 330-340 = GAPGTRYTFPTLT]” yielded an enrichment of 0.0683 ± 0.094.

Same assay, conditions: library: insertions and deletions
“MASGILVNVKEEVTCPICLELLTQPLSLDCGHSFCQACLTANHKKSMLDKGESSCPVCRISYQPENIRPNRHVANIVEKLREVKLSPEGQKVDHCARHGEKLLLFCQEDGKVICWLCERSQEHRGHHTFLTEEVAREYQVKLQAALEMLRQKQQEAEELEADIREEKASWKTQIQYDKTNVLADFEQLRDILDWEESNELQNLEKEEEDILKSLTNSETEMVQQTQSLRELISDLEHRLQGSVMELLQGVDGVIKRTENVTLKKPETFPKNQRRVFRAPDLKGMLEVFRELTDVRRYWVDVTVAPNNISCAVISEDKRQVSSPKPQIIYGARGNFNYCTGILGSQSITSGKHYWEVDVSKKTAWILGVCAGFQPDAMCNIEKNENYQPKYGYWVIGLEEGVKCSAFQDSSFHTPSVPFIVPLSVIICPDRVGVFLDYEACTVSFFNITNHGFLIYKFSHCSFSQPVFPYLNPRKCGVPMTLCSPSS [human TRIM5α, 7-codon deletion at 334]” was tested, and the enrichment was 0.882 ± 0.48. Work on “MASGILVNVKEEVTCPICLELLTQPLSLDCGHSFCQACLTANHKKSMLDKGESSCPVCRISYQPENIRPNRHVANIVEKLREVKLSPEGQKVDHCARHGEKLLLFCQEDGKVICWLCERSQEHRGHHTFLTEEVAREYQVKLQAALEMLRQKQQEAEELEADIREEKASWKTQIQYDKTNVLADFEQLRDILDWEESNELQNLEKEEEDILKSLTNSETEMVQQTQSLRELISDLEHRLQGSVMELLQGVDGVIKRTENVTLKKPETFPKNQRRVFRAPDLKGMLEVFRELTDVRRYWVDVTVAPNNISCAVISEDKRQVSSPKPQIIYGARGTRYQTFRGTRYQTFVNFNYCTGILGSQSITSGKHYWEVDVSKKTAWILGVCAGFQPDAMCNIEKNENYQPKYGYWVIGLEEGVKCSAFQDSSFHTPSVPFIVPLSVIICPDRVGVFLDYEACTVSFFNITNHGFLIYKFSHCSFSQPVFPYLNPRKCGVPMTLCSPSS [human TRIM5α, 8-codon duplication at 332]” yielded an enrichment of 0.0514 ± 0.07. Work on “MASGILVNVKEEVTCPICLELLTQPLSLDCGHSFCQACLTANHKKSMLDKGESSCPVCRISYQPENIRPNRHVANIVEKLREVKLSPEGQKVDHCARHGEKLLLFCQEDGKVICWLCERSQEHRGHHTFLTEEVAREYQVKLQAALEMLRQKQQEAEELEADIREEKASWKTQIQYDKTNVLADFEQLRDILDWEESNELQNLEKEEEDILKSLTNSETEMVQQTQSLRELISDLEHRLQGSVMELLQGVDGVIKRTENVTLKKPETFPKNQRRVFRAPDLKGMLEVFRELTDVRRYWVDVTVAPNNISCAVISEDKRQVSSPKPQIIYGARGTRGARGTRYQTFVNFNYCTGILGSQSITSGKHYWEVDVSKKTAWILGVCAGFQPDAMCNIEKNENYQPKYGYWVIGLEEGVKCSAFQDSSFHTPSVPFIVPLSVIICPDRVGVFLDYEACTVSFFNITNHGFLIYKFSHCSFSQPVFPYLNPRKCGVPMTLCSPSS [human TRIM5α, 6-codon duplication at 330]” yielded an enrichment of 10.5 ± 6.4. In the case of “MASGILVNVKEEVTCPICLELLTQPLSLDCGHSFCQACLTANHKKSMLDKGESSCPVCRISYQPENIRPNRHVANIVEKLREVKLSPEGQKVDHCARHGEKLLLFCQEDGKVICWLCERSQEHRGHHTFLTEEVAREYQVKLQAALEMLRQKQQEAEELEADIREEKASWKTQIQYDKTNVLADFEQLRDILDWEESNELQNLEKEEEDILKSLTNSETEMVQQTQSLRELISDLEHRLQGSVMELLQGVDGVIKRTENVTLKKPETFPKNQRRVFRAPDLKGMLEVFRELTDVRRYWVDVTVAPNNISCAVISEDKRQVSSPKPQIIYGAYQTFVNFNYCTGILGSQSITSGKHYWEVDVSKKTAWILGVCAGFQPDAMCNIEKNENYQPKYGYWVIGLEEGVKCSAFQDSSFHTPSVPFIVPLSVIICPDRVGVFLDYEACTVSFFNITNHGFLIYKFSHCSFSQPVFPYLNPRKCGVPMTLCSPSS [human TRIM5α, 4-codon deletion at 332]”, the enrichment is reported as 0.551 ± 0.046. “MASGILVNVKEEVTCPICLELLTQPLSLDCGHSFCQACLTANHKKSMLDKGESSCPVCRISYQPENIRPNRHVANIVEKLREVKLSPEGQKVDHCARHGEKLLLFCQEDGKVICWLCERSQEHRGHHTFLTEEVAREYQVKLQAALEMLRQKQQEAEELEADIREEKASWKTQIQYDKTNVLADFEQLRDILDWEESNELQNLEKEEEDILKSLTNSETEMVQQTQSLRELISDLEHRLQGSVMELLQGVDGVIKRTENVTLKKPETFPKNQRRVFRAPDLKGMLEVFRELTDVRRYWVDVTVAPNNISCAVISEDKRQVSSPKPQYGARGTRYQTFVNFNYCTGILGSQSITSGKHYWEVDVSKKTAWILGVCAGFQPDAMCNIEKNENYQPKYGYWVIGLEEGVKCSAFQDSSFHTPSVPFIVPLSVIICPDRVGVFLDYEACTVSFFNITNHGFLIYKFSHCSFSQPVFPYLNPRKCGVPMTLCSPSS [human TRIM5α, 2-codon deletion at 327]” was tested, and the enrichment was 1.07 ± 1.1. Sequence “MASGILVNVKEEVTCPICLELLTQPLSLDCGHSFCQACLTANHKKSMLDKGESSCPVCRISYQPENIRPNRHVANIVEKLREVKLSPEGQKVDHCARHGEKLLLFCQEDGKVICWLCERSQEHRGHHTFLTEEVAREYQVKLQAALEMLRQKQQEAEELEADIREEKASWKTQIQYDKTNVLADFEQLRDILDWEESNELQNLEKEEEDILKSLTNSETEMVQQTQSLRELISDLEHRLQGSVMELLQGVDGVIKRTENVTLKKPETFPKNQRRVFRAPDLKGMLEVFRELTDVRRYWVDVTVAPNNISCAVISEDKRQVSSPKPQIIYGAVNFNYCTGILGSQSITSGKHYWEVDVSKKTAWILGVCAGFQPDAMCNIEKNENYQPKYGYWVIGLEEGVKCSAFQDSSFHTPSVPFIVPLSVIICPDRVGVFLDYEACTVSFFNITNHGFLIYKFSHCSFSQPVFPYLNPRKCGVPMTLCSPSS [human TRIM5α, 8-codon deletion at 332]” has an enrichment of 0.873 ± 0.31.

± gives the standard deviation of the averaged measurements. Restriction of a single-cycle SIVsab GFP reporter by TRIM5α v1-loop variants in CRFK cells. Human variants: read share among cells still uninfected after two challenges over input, higher = gained restriction. Rhesus variants: share among infected cells over input, higher = lost restriction. Reporter dose not given per row. No active / inactive call per row; the paper calls a change when both replicates lie above its controls (mean + 2 SD of stop or wild-type variants, or the top frameshift score). Residues outside the varied loop are taken from Swiss-Prot. The paper reads the human single-substitution scores as noise; they and the rhesus combinations repeat poorly (rank correlation 0.3 to 0.4), indel scores repeat only for the top variants, rhesus substitutions well (0.9).
